This is one part of the list. The full chains were built here from the parent and the listed change. Values near 0.05 are background.
B1: TEV protease; numbered along this chain (parent)
chain: MGESLFKGPRDYNPISSSICHLTNESDGHTTSLYGIGFGPFIITNKHLFRRNNGTLVVQSLHGVFKVKDTTTLQQHLVDGRDMIIIRMPKDFPPFPQKLKFREPQREERICLVTTNFQTKSMSSMVSDTSCTFPSGDGIFWKHWIQTKDGQCGSPLVSTRDGFIVGIHSASNFTNTNNYFTSVPKNFMELLTNQEAQQWVSGWRLNADSVLWGGHKVFMVKPEEPFQPVKEATQL

Variants of: B1
Assay: raw area under fraction-flipped curve 0-4 h after induction (AUC4h, not background-subtracted), DNA-recorder readout of cleavage of the substrate (dimensionless); higher = more cleavage of the substrate by the protease variant
Conditions: temperature: 34 °C; time window: 0-4 h after rhamnose induction
Experimental: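 In vivo DNA recorder in E. coli TOP10(DE3) ΔrhaA at 34 °C. Each TEVp single-site mutant (parent TEVp 0) is paired with a single-site variant of the 7-mer TEVs (canonical ENLYFQ|S). The substrate sits between flexible linkers in a Bxb1-sfGFP-TEVs-SsrA fusion, so cleavage stabilises Bxb1 and speeds flipping of a recombination array, read by NGS. The value is the raw area under the fraction-flipped curve over 0-4 h after rhamnose induction (AUC4h), with ≥20 reads per time point. It is not background-subtracted; inactive controls average about 0.047.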
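Note: Bxb1 expression induced with 0.2% (w/v) L-rhamnose at OD600 near 0.5, cultures sampled hourly, flipped fraction per protease–substrate barcode pair counted by paired-end Illumina sequencing.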

Row | Variant | area with substrate CNLYFQS | area with substrate DNLYFQS | area with substrate GNLYFQS | area with substrate HNLYFQS | area with substrate INLYFQS | area with substrate KNLYFQS | area with substrate LNLYFQS | area with substrate PNLYFQS | area with substrate QNLYFQS | area with substrate RNLYFQS | area with substrate TNLYFQS | area with substrate VNLYFQS | area with substrate MNLYFQS | area with substrate NNLYFQS | area with substrate SNLYFQS | area with substrate YNLYFQS | area with substrate WNLYFQS | area with substrate FNLYFQS
1 | T114R | 0.0734 | 0.0888 | 0.0748 | 0.0726 | 0.0665 | 0.0738 | 0.0737 | 0.0657 | 0.0629 | 0.0828 | 0.0808 | 0.0807 | – | – | – | – | – | –
2 | K142W | 0.0732 | 0.072 | 0.0699 | – | 0.067 | – | 0.062 | – | – | – | – | – | 0.0525 | 0.0815 | 0.0508 | 0.0563 | – | –
3 | C20L | 0.0692 | 0.0823 | 0.0678 | 0.068 | 0.0655 | 0.0709 | 0.0685 | 0.0613 | – | 0.0686 | 0.0553 | – | – | – | – | 0.0773 | – | –
4 | R10D | 0.0674 | 0.0961 | 0.0692 | – | 0.0639 | 0.0691 | 0.0478 | – | – | 0.0827 | 0.0636 | 0.066 | 0.0571 | – | 0.0688 | 0.0614 | 0.0588 | –
5 | P9R | 0.0797 | 0.0926 | 0.0766 | 0.0679 | – | 0.0598 | 0.0624 | – | – | – | 0.069 | 0.068 | 0.0622 | – | 0.081 | 0.0947 | – | –
6 | S171H | 0.0489 | 0.0671 | 0.0663 | 0.0562 | 0.0683 | 0.0887 | – | 0.0279 | 0.0727 | 0.0253 | 0.0615 | – | 0.0602 | 0.0712 | 0.0664 | 0.0658 | 0.0596 | 0.058
7 | D82H | 0.0419 | 0.0633 | 0.0564 | – | 0.0531 | – | – | 0.0651 | 0.0575 | – | – | 0.0597 | – | – | – | 0.0462 | 0.0529 | –
8 | D82L | 0.0401 | 0.0531 | – | 0.0421 | – | – | – | 0.0638 | – | – | 0.0514 | 0.0531 | – | 0.0478 | 0.0536 | 0.048 | 0.0576 | –
9 | T129L | 0.0705 | 0.0794 | 0.0841 | 0.056 | – | – | 0.0736 | 0.0528 | 0.0621 | – | 0.0416 | 0.0331 | 0.0665 | – | 0.0614 | – | 0.0593 | 0.0597
10 | N175G | 0.0656 | 0.0308 | – | 0.072 | 0.0569 | – | – | 0.0728 | 0.0393 | – | – | 0.0535 | – | – | 0.0564 | 0.0474 | 0.065 | 0.0576
11 | L33Y | 0.0634 | 0.0555 | – | 0.0576 | – | 0.0545 | 0.0652 | 0.0592 | – | 0.062 | 0.061 | 0.0534 | 0.0625 | 0.0693 | 0.0514 | 0.0601 | 0.0677 | 0.0445
12 | R160W | 0.0764 | 0.101 | – | – | – | – | – | – | – | – | 0.0723 | – | – | – | – | 0.0569 | 0.0656 | –
13 | T174S | 0.0715 | 0.106 | – | – | – | 0.0582 | – | 0.0339 | 0.0609 | – | 0.0822 | – | – | – | 0.0734 | 0 | – | –
14 | D79M | 0.0695 | 0.0651 | 0.0569 | 0.0575 | 0.0534 | 0.0301 | 0.0609 | 0.0531 | – | – | – | – | 0.0604 | – | – | 0.064 | – | 0.0595
15 | G136C | 0.0673 | 0.0833 | – | 0.0663 | 0.0526 | 0.0566 | – | 0.0778 | – | 0.0673 | 0.051 | – | 0.0665 | 0.0685 | 0.0749 | 0.0556 | 0.0558 | –
16 | I164G | 0.0576 | 0.0674 | 0.0556 | 0.0543 | – | 0.0529 | 0.0542 | – | – | – | 0.0537 | – | 0.0487 | – | 0.0641 | 0.0447 | 0.053 | 0.048
